# The other results are listed elsewhere or left out. Rule as the data show it: active = 3.2 or more and inactive = the rest. Only a few entries rise above the background.
# Target: SHP2 C-SH2 domain E139D
# Assay: enrichment score (SH2-bound / input frequency) (ratio); bacterial display of known human phosphotyrosine sites (pTyr-Var adds point mutants) read by sequencing; higher = stronger binding; tyrosines were phosphorylated by kinases first
# Conditions: peptide library: Human pTyr
# 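Also: displayed peptides selected on beads carrying the immobilized SH2 domain, with library peptides lacking any tyrosine serving as negative controls.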
row,Binder,enrichment score
1,MQRAAGPYSVTNCGE [PTN6_HUMAN_377_YA],inactive: 0.864
2,AVQTEEQYRFLYHTV [PTPN18_HUMAN_281],inactive: 0.897
3,AIDAFSDYANFKGGG [PTPRA_HUMAN_798_YA],inactive: 0.581
4,MVSTFEQYQFLYDVI [PTPRC_HUMAN_1216],inactive: 1.96
5,FNQNKNRYVDILPAD [PTPRC_HUMAN_681_YA],active: 3.33
6,FIDIFSDYANFKGGG [PTPRE_HUMAN_696],inactive: 0.951
7,NTTAMTIYENLAPVT [PTPRJ_HUMAN_1320],inactive: 0.839
8,VLPVGVLYKVKVYET [PTPS_HUMAN_128],inactive: 1.25
9,VLPVGVLYKVKVAET [PTPS_HUMAN_128_YA],inactive: 1.12
10,WEKARPEYMLPVHFA [PYGB_HUMAN_197_YA],inactive: 0.983
11,FMLPVHFYGKVEHTN [PYGL_HUMAN_204],inactive: 2.93
12,KTIFKDFYELEPHKF [PYGM_HUMAN_473],inactive: 1.32
13,GQRDSSYYWEIEASE [RAF1_HUMAN_341],inactive: 0.763
14,EETGDTLYAPYSTHF [RAI3_HUMAN_317],inactive: 0.785
15,GDTLYAPYSTHFQLQ [RAI3_HUMAN_320],inactive: 0.818
16,WPSPAKDYEVKKEGS [RAI3_HUMAN_350_YA],inactive: 0.793
17,GGSHISGYATLRRGP [RAPH1_HUMAN_1226],inactive: 1.16
18,NVAAGQDYRNKAKAP [RAPH1_HUMAN_456_YA],inactive: 0.763

# Target: SHP2 C-SH2 domain wild-type
# Assay: as above
# Conditions: peptide library: Human pTyr
row,Binder,enrichment score
1,MQRAAGPYSVTNCGE [PTN6_HUMAN_377_YA],inactive: 0.708
2,AVQTEEQYRFLYHTV [PTPN18_HUMAN_281],inactive: 0.928
3,AIDAFSDYANFKGGG [PTPRA_HUMAN_798_YA],inactive: 0.743
4,MVSTFEQYQFLYDVI [PTPRC_HUMAN_1216],inactive: 2.36
5,FNQNKNRYVDILPAD [PTPRC_HUMAN_681_YA],active: 9.51
6,FIDIFSDYANFKGGG [PTPRE_HUMAN_696],inactive: 1.1
7,NTTAMTIYENLAPVT [PTPRJ_HUMAN_1320],inactive: 0.764
8,VLPVGVLYKVKVYET [PTPS_HUMAN_128],inactive: 1.38
9,VLPVGVLYKVKVAET [PTPS_HUMAN_128_YA],inactive: 0.809
10,WEKARPEYMLPVHFA [PYGB_HUMAN_197_YA],inactive: 0.705
11,FMLPVHFYGKVEHTN [PYGL_HUMAN_204],active: 4.04
12,KTIFKDFYELEPHKF [PYGM_HUMAN_473],inactive: 1.1
13,GQRDSSYYWEIEASE [RAF1_HUMAN_341],inactive: 0.959
14,EETGDTLYAPYSTHF [RAI3_HUMAN_317],inactive: 0.595
15,GDTLYAPYSTHFQLQ [RAI3_HUMAN_320],inactive: 0.752
16,WPSPAKDYEVKKEGS [RAI3_HUMAN_350_YA],inactive: 0.992
17,GGSHISGYATLRRGP [RAPH1_HUMAN_1226],inactive: 1.58
18,NVAAGQDYRNKAKAP [RAPH1_HUMAN_456_YA],inactive: 0.834

# Target: SHP2 N-SH2 domain L43F
# Assay: as above
# Conditions: peptide library: Human pTyr
row,Binder,enrichment score
1,MQRAAGPYSVTNCGE [PTN6_HUMAN_377_YA],inactive: 0.661
2,AVQTEEQYRFLYHTV [PTPN18_HUMAN_281],inactive: 0.751
3,AIDAFSDYANFKGGG [PTPRA_HUMAN_798_YA],inactive: 0.573
4,MVSTFEQYQFLYDVI [PTPRC_HUMAN_1216],inactive: 2.2
5,FNQNKNRYVDILPAD [PTPRC_HUMAN_681_YA],inactive: 1.13
6,FIDIFSDYANFKGGG [PTPRE_HUMAN_696],inactive: 1.1
7,NTTAMTIYENLAPVT [PTPRJ_HUMAN_1320],inactive: 0.666
8,VLPVGVLYKVKVYET [PTPS_HUMAN_128],inactive: 1.2
9,VLPVGVLYKVKVAET [PTPS_HUMAN_128_YA],inactive: 0.989
10,WEKARPEYMLPVHFA [PYGB_HUMAN_197_YA],inactive: 0.796
11,FMLPVHFYGKVEHTN [PYGL_HUMAN_204],inactive: 3.04
12,KTIFKDFYELEPHKF [PYGM_HUMAN_473],inactive: 1.47
13,GQRDSSYYWEIEASE [RAF1_HUMAN_341],inactive: 1.03
14,EETGDTLYAPYSTHF [RAI3_HUMAN_317],inactive: 0.674
15,GDTLYAPYSTHFQLQ [RAI3_HUMAN_320],inactive: 0.583
16,WPSPAKDYEVKKEGS [RAI3_HUMAN_350_YA],inactive: 0.967
17,GGSHISGYATLRRGP [RAPH1_HUMAN_1226],inactive: 0.746
18,NVAAGQDYRNKAKAP [RAPH1_HUMAN_456_YA],inactive: 0.705

# Target: SHP2 N-SH2 domain T42A
# Assay: as above
# Conditions: peptide library: Human pTyr
row,Binder,enrichment score
1,MQRAAGPYSVTNCGE [PTN6_HUMAN_377_YA],inactive: 0.626
2,AVQTEEQYRFLYHTV [PTPN18_HUMAN_281],inactive: 0.878
3,AIDAFSDYANFKGGG [PTPRA_HUMAN_798_YA],inactive: 0.639
4,MVSTFEQYQFLYDVI [PTPRC_HUMAN_1216],inactive: 2.26
5,FNQNKNRYVDILPAD [PTPRC_HUMAN_681_YA],inactive: 1.64
6,FIDIFSDYANFKGGG [PTPRE_HUMAN_696],inactive: 0.94
7,NTTAMTIYENLAPVT [PTPRJ_HUMAN_1320],inactive: 0.673
8,VLPVGVLYKVKVYET [PTPS_HUMAN_128],inactive: 1.24
9,VLPVGVLYKVKVAET [PTPS_HUMAN_128_YA],inactive: 0.827
10,WEKARPEYMLPVHFA [PYGB_HUMAN_197_YA],inactive: 0.754
11,FMLPVHFYGKVEHTN [PYGL_HUMAN_204],inactive: 2.57
12,KTIFKDFYELEPHKF [PYGM_HUMAN_473],inactive: 0.832
13,GQRDSSYYWEIEASE [RAF1_HUMAN_341],inactive: 1.1
14,EETGDTLYAPYSTHF [RAI3_HUMAN_317],inactive: 0.643
15,GDTLYAPYSTHFQLQ [RAI3_HUMAN_320],inactive: 0.747
16,WPSPAKDYEVKKEGS [RAI3_HUMAN_350_YA],inactive: 0.884
17,GGSHISGYATLRRGP [RAPH1_HUMAN_1226],inactive: 0.801
18,NVAAGQDYRNKAKAP [RAPH1_HUMAN_456_YA],inactive: 0.87

# Target: SHP2 N-SH2 domain T52S
# Assay: as above
# Conditions: peptide library: Human pTyr
row,Binder,enrichment score
1,MQRAAGPYSVTNCGE [PTN6_HUMAN_377_YA],inactive: 0.718
2,AVQTEEQYRFLYHTV [PTPN18_HUMAN_281],inactive: 0.899
3,AIDAFSDYANFKGGG [PTPRA_HUMAN_798_YA],inactive: 0.624
4,MVSTFEQYQFLYDVI [PTPRC_HUMAN_1216],inactive: 2.52
5,FNQNKNRYVDILPAD [PTPRC_HUMAN_681_YA],inactive: 1.05
6,FIDIFSDYANFKGGG [PTPRE_HUMAN_696],inactive: 1.08
7,NTTAMTIYENLAPVT [PTPRJ_HUMAN_1320],inactive: 0.613
8,VLPVGVLYKVKVYET [PTPS_HUMAN_128],inactive: 1.38
9,VLPVGVLYKVKVAET [PTPS_HUMAN_128_YA],inactive: 0.83
10,WEKARPEYMLPVHFA [PYGB_HUMAN_197_YA],inactive: 0.895
11,FMLPVHFYGKVEHTN [PYGL_HUMAN_204],inactive: 2.65
12,KTIFKDFYELEPHKF [PYGM_HUMAN_473],inactive: 1.3
13,GQRDSSYYWEIEASE [RAF1_HUMAN_341],inactive: 0.97
14,EETGDTLYAPYSTHF [RAI3_HUMAN_317],inactive: 0.774
15,GDTLYAPYSTHFQLQ [RAI3_HUMAN_320],inactive: 0.759
16,WPSPAKDYEVKKEGS [RAI3_HUMAN_350_YA],inactive: 0.602
17,GGSHISGYATLRRGP [RAPH1_HUMAN_1226],inactive: 0.654
18,NVAAGQDYRNKAKAP [RAPH1_HUMAN_456_YA],inactive: 1.15

# Target: SHP2 N-SH2 domain wild-type
# Assay: as above
# Conditions: peptide library: Human pTyr
row,Binder,enrichment score
1,MQRAAGPYSVTNCGE [PTN6_HUMAN_377_YA],inactive: 0.833
2,AVQTEEQYRFLYHTV [PTPN18_HUMAN_281],inactive: 0.787
3,AIDAFSDYANFKGGG [PTPRA_HUMAN_798_YA],inactive: 0.765
4,MVSTFEQYQFLYDVI [PTPRC_HUMAN_1216],active: 3.55
5,FNQNKNRYVDILPAD [PTPRC_HUMAN_681_YA],inactive: 1.15
6,FIDIFSDYANFKGGG [PTPRE_HUMAN_696],inactive: 0.993
7,NTTAMTIYENLAPVT [PTPRJ_HUMAN_1320],inactive: 0.896
8,VLPVGVLYKVKVYET [PTPS_HUMAN_128],inactive: 1.66
9,VLPVGVLYKVKVAET [PTPS_HUMAN_128_YA],inactive: 0.918
10,WEKARPEYMLPVHFA [PYGB_HUMAN_197_YA],inactive: 0.726
11,FMLPVHFYGKVEHTN [PYGL_HUMAN_204],active: 3.47
12,KTIFKDFYELEPHKF [PYGM_HUMAN_473],inactive: 1.08
13,GQRDSSYYWEIEASE [RAF1_HUMAN_341],inactive: 0.905
14,EETGDTLYAPYSTHF [RAI3_HUMAN_317],inactive: 0.733
15,GDTLYAPYSTHFQLQ [RAI3_HUMAN_320],inactive: 0.808
16,WPSPAKDYEVKKEGS [RAI3_HUMAN_350_YA],inactive: 0.759
17,GGSHISGYATLRRGP [RAPH1_HUMAN_1226],inactive: 0.603
18,NVAAGQDYRNKAKAP [RAPH1_HUMAN_456_YA],inactive: 0.759
